Measured values from PubChem BioAssay AID1460 (National Center for Advancing Translational Sciences (NCATS), 2008).
In all, about 270,000 compounds went through this assay and about 5,800 (2.1%) were called active. This list was built around the results that the source calls inconclusive (neither active nor inactive); the mix of calls is not that of the screen. The call rests on the fitted dose curve; in most records, active means well fitted inhibition curve with a large enough effect; inconclusive means small, poorly fitted or top-dose-only effect; inactive means flat fitted curve, though single readings scatter. Where the call is inconclusive, the potency comes from a doubtful curve fit.

Each compound was assayed against Microtubule-associated protein tau (Homo sapiens) (UniProt P10636) (assay: qHTS for Inhibitors of Tau Fibril Formation, Thioflavin T Binding). Conditions: recombinant tau K18 P301L, heparin-induced fibrillization, ThT fluorescence; series mostly up to 57.4 µM; activity, negative = inhibition: at the top concentration.
How it was run: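 Fibril formation assay: tau K18 P301L at 15 uM with trace Alexa 594 label, heparin inducer 20 uM, pH 7 sodium acetate buffer, 37 C for 6 hr; endpoint ThT signal.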
Further: nearly all actives have a fitted effect of over 55% in size.
On the % scale 0 is the no-effect control and ±100 the full control effect; potency means the concentration at half of the fitted maximal effect; tags describe the fitted curve by direction and shape.

UniProt P10636, sequence (P10636 whole entry, looked up): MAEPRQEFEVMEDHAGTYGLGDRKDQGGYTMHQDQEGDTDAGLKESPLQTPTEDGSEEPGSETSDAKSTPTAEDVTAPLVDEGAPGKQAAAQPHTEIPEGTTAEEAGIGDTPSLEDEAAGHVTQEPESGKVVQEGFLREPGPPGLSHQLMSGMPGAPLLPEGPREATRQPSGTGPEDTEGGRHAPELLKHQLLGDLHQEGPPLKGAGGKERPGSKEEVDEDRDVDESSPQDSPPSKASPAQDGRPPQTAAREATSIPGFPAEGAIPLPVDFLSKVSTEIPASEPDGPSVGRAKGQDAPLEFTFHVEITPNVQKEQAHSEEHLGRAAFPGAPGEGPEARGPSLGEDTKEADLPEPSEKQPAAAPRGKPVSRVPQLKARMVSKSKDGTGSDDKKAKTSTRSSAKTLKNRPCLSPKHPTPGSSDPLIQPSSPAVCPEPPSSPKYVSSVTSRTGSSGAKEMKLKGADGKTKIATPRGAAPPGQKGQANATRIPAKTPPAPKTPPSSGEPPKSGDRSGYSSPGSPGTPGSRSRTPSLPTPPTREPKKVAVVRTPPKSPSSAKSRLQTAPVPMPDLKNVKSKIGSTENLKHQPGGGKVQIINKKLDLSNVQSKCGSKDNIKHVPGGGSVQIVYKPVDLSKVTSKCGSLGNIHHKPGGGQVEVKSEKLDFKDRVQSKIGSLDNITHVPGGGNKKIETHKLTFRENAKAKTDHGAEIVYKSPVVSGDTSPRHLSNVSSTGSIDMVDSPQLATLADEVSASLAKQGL

| Compound | activity, negative = inhibition | Potency |
| --- | --- | --- |
| CCn1ncc([C@@H]2C[C@H]3CN(Cc4cccc(Cl)c4)C(=O)[C@]34CCCN24)c1C | inactive: -5.8% | – |
| CCc1[nH]c(=O)c(C#N)c2c1CSC(C)(C)C2 | – | inconclusive: 31.6 µM [inhibitor, single point] |
| O=C(Nc1ccc(N2CCN(C(=O)c3ccc(Cl)cc3)CC2)cc1)c1ccc(Br)o1 | – | inconclusive: 14.1 µM [inhibitor, partial curve] |
| Cn1cccc1/C=C1\CCc2ccccc2C1=O | – | inconclusive: 12.6 µM [inhibitor, partial curve] |
| COc1ccc(CN2COc3ccc4c(-c5ccc(OC)cc5)cc(=O)oc4c3C2)cc1 | – | inconclusive: 5.01 µM [inhibitor, full curve] |
| CC(=O)Nc1ccc(Nc2ccccc2)cc1 | – | inconclusive: 44.7 µM [inhibitor, partial curve, poor fit] |
| CCc1nc2sc3c(c2c(=O)o1)CCCC3 | – | inconclusive: 35.5 µM [inhibitor, partial curve] |
| COc1ccc(C(C)=O)cc1COC(=O)c1ccc(N)c([N+](=O)[O-])c1 | – | inconclusive: 7.08 µM [inhibitor, partial curve] |
| c1ccc2c(c1)ncn2CCCOc1ccc2c(c1)CCC2 | – | inconclusive: 25.1 µM [inhibitor, partial curve, poor fit] |
| Cc1ccc(SCc2ccc(C(=O)N3CCCCC3)cc2)cc1 | – | inconclusive: 20 µM [inhibitor, partial curve] |
| Cc1cccc(N2CCN(C(=O)C3CCN(S(=O)(=O)c4cn(C)cn4)CC3)CC2)c1C | inactive: 0.366% | – |
| COc1ccc(/C=C/C(=O)NC(=S)NNC(=O)c2cccnc2)cc1 | – | inconclusive: 17.8 µM [inhibitor, partial curve] |
| Cc1cccc(-c2c3c(=O)n(C)c(=O)n(C)c3cn2C2CCCCC2)c1 | – | inconclusive: 28.2 µM [inhibitor, single point] |
| CCN(CC)c1ccc(NC(=O)Nc2ccc(C(C)=O)cc2)cc1 | – | inconclusive: 12.6 µM [inhibitor, partial curve] |
| CCCNc1nc(NCc2ccccc2OC)c2cnn(C)c2n1 | inactive: -13.7% | – |
| C=C(C)COc1ccc2c(C)c(CC(=O)OC)c(=O)oc2c1C | – | inconclusive: 17.8 µM [inhibitor, partial curve] |
| CCN(CCCNC(=O)c1cc2c(=O)[nH]c3ccc(C)cc3c2s1)c1ccc(C)cc1 | – | inconclusive: 5.62 µM [inhibitor, partial curve, poor fit] |
| COc1ccc(C2NC(=O)c3c(sc4c3CCN(C)C4)N2)cc1O (stereo unspecified) | – | active: 5.62 µM |
| CCc1ccc(NC(=O)C(CC)n2nnc(C(=O)OC)c2C(=O)OC)cc1 (stereo unspecified) | inactive: -4.75% | – |
| CCOc1ccc(-c2ccc(C=O)o2)c([N+](=O)[O-])c1 | – | inconclusive: 15.8 µM [inhibitor, partial curve] |
| Cc1cc(O)c(C2=Nc3ccccc3SC(c3ccc(Cl)cc3)C2)c(=O)o1 (stereo unspecified) | – | inconclusive: 11.2 µM [inhibitor, partial curve] |
| COc1cc2c(cc1OC)C(C)N(C(=O)c1cc3c(s1)-c1ccccc1OC3)CC2 (stereo unspecified) | – | inconclusive: 4.47 µM [inhibitor, full curve] |

| Compound | activity, negative = inhibition | Potency |
| --- | --- | --- |
| Cc1cc(=O)oc2cc(Oc3ccc([N+](=O)[O-])cc3[N+](=O)[O-])ccc12 | – | inconclusive: 14.1 µM [inhibitor, partial curve] |
| CCOC(=O)c1sc(=N)n(-c2ccc(OC)cc2)c1C | – | inconclusive: 8.91 µM [inhibitor, partial curve] |
| CCOc1nc(NCCc2ccc(OC)c(OC)c2)nc(N2CCN(c3ccc(OC)cc3)CC2)n1 | – | inconclusive: 1.78 µM [inhibitor, full curve] |
| Oc1ccccc1N1CCN(c2ncnc3sc(-c4ccccc4)cc23)CC1 | – | inconclusive: 20 µM [inhibitor, partial curve] |
| CCCC(=O)O[C@]1(C(=O)CCl)[C@@H](C)C[C@H]2[C@@H]3CCC4=CC(=O)C=C[C@]4(C)[C@@]3(F)C(=O)C[C@@]21C | – | inconclusive: 39.8 µM [inhibitor, single point] |
| CCCCCn1c(=O)[nH]c2cc(C(=O)NCc3ccc(OC)cc3)ccc2c1=O | inactive: -8.03% | – |
| CCOC(=O)NN1C(=O)c2ccccc2NC1c1ccccc1 (stereo unspecified) | inactive: -0.541% | – |
| CC(=O)c1ccc(N2CCN(C(=S)Nc3ccc(Oc4ccccc4)cc3)CC2)cc1 | – | inconclusive: 2.82 µM [inhibitor, full curve] |
| Cc1cc(N)ccc1-n1c(C)ccc1C | – | active: 14.1 µM |
| CNc1oc(Cc2ccccc2)nc1S(=O)(=O)c1ccc(Cl)cc1 | – | inconclusive: 39.8 µM [inhibitor, single point] |
| CCN(c1ccc(Cl)cc1)S(=O)(=O)c1nnc(NC(=O)C2CCCCC2)s1 | – | inconclusive: 11.2 µM [inhibitor, partial curve, poor fit] |
| CSc1nc2sc3c(c2c(=O)[nH]1)CCC(C)C3 (stereo unspecified) | – | inconclusive: 2.51 µM [inhibitor, partial curve] |
| Cc1nnc(SCC2=C(C(=O)O)N3C(=O)C(NC(=O)Cn4nc(C(F)F)c(Cl)c4C)C3SC2)s1 (stereo unspecified) | – | inconclusive: 39.8 µM [inhibitor, single point] |
| CCN1CCN(CCOc2cccc(Cl)c2Cl)CC1 | inactive: -6.54% | – |
| Cc1ccc(NC(=O)CN(C)C(=O)CSc2nc3ccccc3c(=O)n2Cc2ccco2)cc1 | – | inconclusive: 0.447 µM [inhibitor, partial curve, poor fit] |
| CCOC(=O)N1CCN(C(=O)CCSc2ccccc2)CC1 | – | inconclusive: 11.2 µM [inhibitor, partial curve] |
| Nc1ccc(N2CCN(c3cccc(Cl)c3)CC2)cc1 | – | inconclusive: 39.8 µM [inhibitor, single point] |
| C/C=C/c1ccc(OCCCNC)c(OC)c1 | inactive: -10.3% | – |
| Cc1ccc(NC(=O)N2CCN(c3nnc(C)c4c(C)n(-c5ccccc5)nc34)CC2)cc1Cl | – | inconclusive: 39.8 µM [inhibitor, single point] |
| COc1cc(-c2nnc(SCC(=O)OC3CCCCC3)o2)cc(OC)c1OC | – | inconclusive: 39.8 µM [inhibitor, single point] |
| COc1ccc(-c2noc(-c3ccc(NCCc4ccccc4)c([N+](=O)[O-])c3)n2)cc1OC | – | inconclusive: 11.2 µM [inhibitor, partial curve] |
| CC(C)c1nnc(NC(=O)CS(=O)(=O)Cc2ccccc2)s1 | inactive: 8.24% | – |

| Compound | activity, negative = inhibition | Potency |
| --- | --- | --- |
| O=C(NCc1ccccc1)c1ccc2nc(-c3ccco3)c(-c3ccco3)nc2c1 | – | active: 14.1 µM |
| N#C/C(=C\c1c[nH]c2ccccc12)C(=O)c1ccc(O)c(O)c1 | – | active: 10 µM |
| O=C(Nc1cccc(S(=O)(=O)Nc2ccccc2Cl)c1)c1ccc(N2CCCC2)c([N+](=O)[O-])c1 | – | inconclusive: 4.47 µM [inhibitor, full curve] |
| CCCC(=O)C1=C(c2ccc(C)c(C)c2)N(C(=O)CCC)n2c(CC)nnc2S1 | – | inconclusive: 14.1 µM [inhibitor, partial curve] |
| COc1cccc(N(C(=O)c2ccco2)c2nc(-c3sc(NC(=O)c4ccco4)nc3C)cs2)c1 | – | inconclusive: 7.94 µM [inhibitor, partial curve] |
| O=C1c2ccccc2C(=O)C1Cc1cccc2ccccc12 | – | inconclusive: 28.2 µM [inhibitor, partial curve] |
| COc1ccc2c(c1)-c1nc(NC(=O)c3ccc(C)cc3)sc1CC2 | – | inconclusive: 0.316 µM [inhibitor, full curve, poor fit] |
| Cc1cc(C)c2nc(-c3cccnc3)cc(C(=O)NC(C)c3cnn(C)c3C)c2c1 (stereo unspecified) | – | inconclusive: 39.8 µM [inhibitor, single point] |
| NC(=S)n1[nH]c(-c2ccc([N+](=O)[O-])cc2)c(N=Nc2ccc(Cl)cc2)c1=O | – | active: 3.98 µM |
| CCOC(=O)/C(C#N)=C1/SC(CCO)C(=O)N1c1ccccc1 (stereo unspecified) | – | inconclusive: 22.4 µM [inhibitor, single point] |
| COc1ccc(/C=N/N2C(=O)C3C4C=CC(CC4)C3C2=O)c(OC)c1 (stereo unspecified) | inactive: -8.93% | – |
| Cc1cccc(C(=O)NC(=S)Nc2ccc(S(=O)(=O)N3CCCCC3)cc2)c1 | inactive: -11.8% | – |
| CCOc1ccc2[nH]c(=O)c(CN(Cc3nnnn3Cc3ccccc3)CC3CCCO3)cc2c1 (stereo unspecified) | – | inconclusive: 39.8 µM [inhibitor, single point] |
| O=C(/C=C/Nc1ccc(F)cc1)c1ccco1 | – | inconclusive: 28.2 µM [inhibitor, single point] |
| Cc1ccc(-c2noc(CSc3nnc(-c4ccccc4)n3C)n2)cc1 | – | inconclusive: 39.8 µM [inhibitor, partial curve] |
| O=C(NC1CCCCC1)c1cnn2c(C(F)(F)F)cc(-c3ccco3)nc12 | – | inconclusive: 28.2 µM [inhibitor, single point] |
| CC(=O)NC(=C(Cl)Cl)S(=O)(=O)c1ccccc1 | inactive: -6.46% | – |
| O=C(COc1ccc(Cl)cc1)N1CCN(c2ccc([N+](=O)[O-])c(N3CCOCC3)c2)CC1 | – | inconclusive: 22.4 µM [inhibitor, partial curve] |
| CCOC(=O)c1c(NC(=O)CCCC(=O)O)sc2c1CCC2 | inactive: -5.93% | – |
| CCOC(=O)Nc1ccc2c(c1)Sc1ccccc1N2C(=O)CCN1CCOCC1 | inactive: -18.4% | – |
| COc1ccc(NC(=O)/C(C#N)=C\c2cc(C)n(-c3ccc(Oc4ccc([N+](=O)[O-])cn4)cc3)c2C)cc1 | – | inconclusive: 1.41 µM [inhibitor, full curve] |
| COc1ccc(CCNC(=O)c2c(O)c3c([nH]c2=O)CCCC3)cc1 | – | inconclusive: 0.1 µM [inhibitor, full curve] |
